# The other results are listed elsewhere or left out.
# B1: EULS2 M2 (Oryza sativa) (protein)
# chain: MVYCRANPNYAMTARNGAVVLAPANPKDEYQHWIKDMRWSTSIKDEEGYPAFALVNKATGQAIKHSLGQSHPVRLVPYNPEVMDESVLWTESRDVGNGFRCIRMVNNIYLNFDAFHGDKYHGGVRDGTDIVLWKLCEGDSQRWKIQPYYILEQKLISEEDLNSAVDHHHHHH
# Assays:
# Experiment in all cases: glycan array binding signal (z-score within array); higher = stronger binding
# Details in all cases: glycan notation: IUPAC condensed, linker removed
# [1] = target: Neu5Ac(a2-3)Gal(b1-3)GalNAc
# How it was run: (§1)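 Glycan array data were curated from 3228 arrays in the Consortium for Functional Glycomics database and kept only where the protein sequence was available. Glycan names were converted to IUPAC-condensed notation, and columns mapping to the same glycan were averaged. The binding signal is a within-array Z-score, averaged across arrays of the same protein sequence at different concentrations or buffers and across linkers. Negative Z-scores can be read as non-binding.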
# [2] = target: Neu5Ac(a2-3)Gal(b1-3)GalNAc(b1-3)Gal(a1-4)Gal(b1-4)Glc
# How it was run: as §1
# [3] = target: Neu5Ac(a2-3)Gal(b1-3)GalNAc(b1-4)[Neu5Ac(a2-3)]Gal(b1-4)Glc
# How it was run: as §1
# [4] = target: Neu5Ac(a2-3)Gal(b1-3)GalNAc(b1-4)[Neu5Ac(a2-8)Neu5Ac(a2-3)]Gal(b1-4)Glc
# How it was run: as §1
# [5] = target: Neu5Ac(a2-3)Gal(b1-3)GalNAc6S
# How it was run: as §1
# [6] = target: Neu5Ac(a2-3)Gal(b1-3)GlcNAc
# How it was run: as §1
# [7] = target: Neu5Ac(a2-3)Gal(b1-3)GlcNAc(b1-2)Man
# How it was run: as §1
# [8] = target: Neu5Ac(a2-3)Gal(b1-3)GlcNAc(b1-2)Man(a1-3)[GlcNAc(b1-4)][Neu5Ac(a2-3)Gal(b1-3)GlcNAc(b1-2)Man(a1-6)]Man(b1-4)GlcNAc(b1-4)GlcNAc
# How it was run: as §1
# [9] = target: Neu5Ac(a2-3)Gal(b1-3)GlcNAc(b1-2)Man(a1-3)[Neu5Ac(a2-3)Gal(b1-3)GlcNAc(b1-2)Man(a1-6)]Man(b1-4)GlcNAc(b1-4)GlcNAc
# How it was run: as §1
# [10] = target: Neu5Ac(a2-3)Gal(b1-3)GlcNAc(b1-3)Gal(b1-3)GlcNAc
# How it was run: as §1
# [11] = target: Neu5Ac(a2-3)Gal(b1-3)GlcNAc(b1-3)Gal(b1-4)GlcNAc
# How it was run: as §1
# [12] = target: Neu5Ac(a2-3)Gal(b1-3)GlcNAc(b1-3)GalNAc
# How it was run: as §1
# [13] = target: Neu5Ac(a2-3)Gal(b1-3)GlcNAc(b1-4)Gal(b1-4)Glc
# How it was run: as §1
# [14] = target: Neu5Ac(a2-3)Gal(b1-3)GlcNAc(b1-6)GalNAc
# How it was run: as §1
# [15] = target: Neu5Ac(a2-3)Gal(b1-3)GlcNAc6S
# How it was run: as §1
# [16] = target: Neu5Ac(a2-3)Gal(b1-3)[Fuc(a1-4)]GlcNAc
# How it was run: as §1
# [17] = target: Neu5Ac(a2-3)Gal(b1-3)[Fuc(a1-4)]GlcNAc(b1-3)Gal(b1-3)[Fuc(a1-4)]GlcNAc
# How it was run: as §1
# [18] = target: Neu5Ac(a2-3)Gal(b1-3)[Fuc(a1-4)]GlcNAc(b1-3)Gal(b1-4)[Fuc(a1-3)]GlcNAc
# How it was run: as §1
# [19] = target: Neu5Ac(a2-3)Gal(b1-3)[GlcNAc(b1-6)]GalNAc
# How it was run: as §1
# [20] = target: Neu5Ac(a2-3)Gal(b1-3)[Neu5Ac(a2-6)]GalNAc
# How it was run: as §1
# [21] = target: Neu5Ac(a2-3)Gal(b1-3)[Neu5Ac(a2-6)]GlcNAc(b1-3)[Fuc(a1-3)[Gal(b1-4)]GlcNAc(b1-6)]Gal(b1-4)Glc
# How it was run: as §1
# [22] = target: Neu5Ac(a2-3)Gal(b1-3)]Neu5Ac(a2-3)Gal(b1-4)]GlcNAc
# How it was run: as §1
# Neu5Ac(a2-3)Gal(b1-4)Glc = target: Neu5Ac(a2-3)Gal(b1-4)Glc
# How it was run: as §1
# [23] = target: Neu5Ac(a2-3)Gal(b1-4)GlcNAc
# How it was run: as §1
# [24] = target: Neu5Ac(a2-3)Gal(b1-4)GlcNAc(b1-2)Man
# How it was run: as §1
# [25] = target: Neu5Ac(a2-3)Gal(b1-4)GlcNAc(b1-2)Man(a1-3)[GlcNAc(b1-4)][Neu5Ac(a2-3)Gal(b1-4)GlcNAc(b1-2)Man(a1-6)]Man(b1-4)GlcNAc(b1-4)GlcNAc
# How it was run: as §1
# [26] = target: Neu5Ac(a2-3)Gal(b1-4)GlcNAc(b1-2)Man(a1-3)[Neu5Ac(a2-3)Gal(b1-4)GlcNAc(b1-2)Man(a1-6)]Man(b1-4)GlcNAc(b1-4)GlcNAc
# How it was run: as §1
# [27] = target: Neu5Ac(a2-3)Gal(b1-4)GlcNAc(b1-2)Man(a1-3)[Neu5Ac(a2-3)Gal(b1-4)GlcNAc(b1-2)Man(a1-6)]Man(b1-4)GlcNAc(b1-4)[Fuc(a1-6)]GlcNAc
# How it was run: as §1
# [28] = target: Neu5Ac(a2-3)Gal(b1-4)GlcNAc(b1-2)Man(a1-3)[Neu5Ac(a2-6)Gal(b1-4)GlcNAc(b1-2)Man(a1-6)]Man(b1-4)GlcNAc(b1-4)GlcNAc
# How it was run: as §1
# [29] = target: Neu5Ac(a2-3)Gal(b1-4)GlcNAc(b1-2)[Neu5Ac(a2-3)Gal(b1-4)GlcNAc(b1-4)]Man(a1-3)[GlcNAc(b1-4)][Neu5Ac(a2-3)Gal(b1-4)GlcNAc(b1-2)[Neu5Ac(a2-3)Gal(b1-4)GlcNAc(b1-6)]Man(a1-6)]Man(b1-4)GlcNAc(b1-4)GlcNAc
# How it was run: as §1
# [30] = target: Neu5Ac(a2-3)Gal(b1-4)GlcNAc(b1-2)[Neu5Ac(a2-3)Gal(b1-4)GlcNAc(b1-4)]Man(a1-3)[GlcNAc(b1-4)][Neu5Ac(a2-3)Gal(b1-4)GlcNAc(b1-4)Man(a1-6)]Man(b1-4)GlcNAc(b1-4)GlcNAc
# How it was run: as §1
# [31] = target: Neu5Ac(a2-3)Gal(b1-4)GlcNAc(b1-2)[Neu5Ac(a2-3)Gal(b1-4)GlcNAc(b1-6)]Man(a1-6)[Neu5Ac(a2-3)Gal(b1-4)GlcNAc(b1-2)Man(a1-3)]Man(b1-4)GlcNAc(b1-4)GlcNAc
# How it was run: as §1
# [32] = target: Neu5Ac(a2-3)Gal(b1-4)GlcNAc(b1-2)[Neu5Ac(a2-3)Gal(b1-4)GlcNAc(b1-6)]Man(a1-6)[Neu5Ac(a2-3)Gal(b1-4)GlcNAc(b1-2)Man(a1-3)][GlcNAc(b1-4)]Man(b1-4)GlcNAc(b1-4)GlcNAc
# How it was run: as §1
# [33] = target: Neu5Ac(a2-3)Gal(b1-4)GlcNAc(b1-3)Gal
# How it was run: as §1
# [34] = target: Neu5Ac(a2-3)Gal(b1-4)GlcNAc(b1-3)Gal(b1-3)GlcNAc
# How it was run: as §1
# [35] = target: Neu5Ac(a2-3)Gal(b1-4)GlcNAc(b1-3)Gal(b1-4)GlcNAc
# How it was run: as §1
# [36] = target: Neu5Ac(a2-3)Gal(b1-4)GlcNAc(b1-3)Gal(b1-4)GlcNAc(b1-2)Man(a1-3)[Neu5Ac(a2-3)Gal(b1-4)GlcNAc(b1-3)Gal(b1-4)GlcNAc(b1-2)Man(a1-6)]Man(b1-4)GlcNAc(b1-4)GlcNAc
# How it was run: as §1
# [37] = target: Neu5Ac(a2-3)Gal(b1-4)GlcNAc(b1-3)Gal(b1-4)GlcNAc(b1-3)Gal(b1-4)GlcNAc
# How it was run: as §1
# [38] = target: Neu5Ac(a2-3)Gal(b1-4)GlcNAc(b1-3)Gal(b1-4)GlcNAc(b1-3)Gal(b1-4)GlcNAc(b1-2)Man(a1-3)[Neu5Ac(a2-3)Gal(b1-4)GlcNAc(b1-3)Gal(b1-4)GlcNAc(b1-3)Gal(b1-4)GlcNAc(b1-2)Man(a1-6)]GalNAc
# How it was run: as §1
# [39] = target: Neu5Ac(a2-3)Gal(b1-4)GlcNAc(b1-3)Gal(b1-4)GlcNAc(b1-3)GalNAc
# How it was run: as §1
# [40] = target: Neu5Ac(a2-3)Gal(b1-4)GlcNAc(b1-3)Gal(b1-4)GlcNAc(b1-3)[Neu5Ac(a2-3)Gal(b1-4)GlcNAc(b1-3)Gal(b1-4)GlcNAc(b1-6)]GalNAc
# How it was run: as §1
# [41] = target: Neu5Ac(a2-3)Gal(b1-4)GlcNAc(b1-3)Gal(b1-4)GlcNAc(b1-6)[Gal(b1-3)]GalNAc
# How it was run: as §1
# [42] = target: Neu5Ac(a2-3)Gal(b1-4)GlcNAc(b1-3)Gal(b1-4)[Fuc(a1-3)]GlcNAc
# How it was run: as §1
# [43] = target: Neu5Ac(a2-3)Gal(b1-4)GlcNAc(b1-3)GalNAc
# How it was run: as §1
# [44] = target: Neu5Ac(a2-3)Gal(b1-4)GlcNAc(b1-3)[Neu5Ac(a2-3)Gal(b1-4)GlcNAc(b1-6)]GalNAc
# How it was run: as §1
binder,measurement,setting,value
B1,glycan array binding signal (z-score),[1],-0.21
same,glycan array binding signal (z-score),[2],0.02
same,glycan array binding signal (z-score),[3],-0.522
same,glycan array binding signal (z-score),[4],-0.303
same,glycan array binding signal (z-score),[5],-0.012
same,glycan array binding signal (z-score),[6],-0.24
same,glycan array binding signal (z-score),[7],-0.173
same,glycan array binding signal (z-score),[8],0.02
same,glycan array binding signal (z-score),[9],-0.092
same,glycan array binding signal (z-score),[10],-0.491
same,glycan array binding signal (z-score),[11],-0.059
same,glycan array binding signal (z-score),[12],-0.451
same,glycan array binding signal (z-score),[13],-0.656
same,glycan array binding signal (z-score),[14],-0.569
same,glycan array binding signal (z-score),[15],-0.495
same,glycan array binding signal (z-score),[16],-0.545
same,glycan array binding signal (z-score),[17],0.084
same,glycan array binding signal (z-score),[18],-0.548
same,glycan array binding signal (z-score),[19],-0.206
same,glycan array binding signal (z-score),[20],-0.48
same,glycan array binding signal (z-score),[21],-0.432
same,glycan array binding signal (z-score),[22],-0.119
same,glycan array binding signal (z-score),Neu5Ac(a2-3)Gal(b1-4)Glc,-0.252
same,glycan array binding signal (z-score),[23],-0.584
same,glycan array binding signal (z-score),[24],0.628
same,glycan array binding signal (z-score),[25],-0.379
same,glycan array binding signal (z-score),[26],0.365
same,glycan array binding signal (z-score),[27],-0.323
same,glycan array binding signal (z-score),[28],0.097
same,glycan array binding signal (z-score),[29],-0.279
same,glycan array binding signal (z-score),[30],-0.387
same,glycan array binding signal (z-score),[31],0.257
same,glycan array binding signal (z-score),[32],-0.623
same,glycan array binding signal (z-score),[33],0.295
same,glycan array binding signal (z-score),[34],-0.404
same,glycan array binding signal (z-score),[35],-0.644
same,glycan array binding signal (z-score),[36],-0.051
same,glycan array binding signal (z-score),[37],-0.585
same,glycan array binding signal (z-score),[38],-0.26
same,glycan array binding signal (z-score),[39],-0.327
same,glycan array binding signal (z-score),[40],-0.484
same,glycan array binding signal (z-score),[41],-0.247
same,glycan array binding signal (z-score),[42],-0.328
same,glycan array binding signal (z-score),[43],-0.581
same,glycan array binding signal (z-score),[44],-0.255
